Results: publication PMC4336329 (PLoS ONE, 2015)
The campaign covered roughly 310,000 compounds. About 2,200 (0.71%) showed an effect of 50% or more. The effect is printed as a negative number. The list shows a part of the results.

Target: human ether-à-go-go-related gene (hERG) potassium channel (human, UniProt Q12809)
Assay: primary screen, population patch clamp on CHO cells stably expressing hERG

human ether-à-go-go-related gene (hERG) potassium channel, sequence (Q12809 whole entry, looked up): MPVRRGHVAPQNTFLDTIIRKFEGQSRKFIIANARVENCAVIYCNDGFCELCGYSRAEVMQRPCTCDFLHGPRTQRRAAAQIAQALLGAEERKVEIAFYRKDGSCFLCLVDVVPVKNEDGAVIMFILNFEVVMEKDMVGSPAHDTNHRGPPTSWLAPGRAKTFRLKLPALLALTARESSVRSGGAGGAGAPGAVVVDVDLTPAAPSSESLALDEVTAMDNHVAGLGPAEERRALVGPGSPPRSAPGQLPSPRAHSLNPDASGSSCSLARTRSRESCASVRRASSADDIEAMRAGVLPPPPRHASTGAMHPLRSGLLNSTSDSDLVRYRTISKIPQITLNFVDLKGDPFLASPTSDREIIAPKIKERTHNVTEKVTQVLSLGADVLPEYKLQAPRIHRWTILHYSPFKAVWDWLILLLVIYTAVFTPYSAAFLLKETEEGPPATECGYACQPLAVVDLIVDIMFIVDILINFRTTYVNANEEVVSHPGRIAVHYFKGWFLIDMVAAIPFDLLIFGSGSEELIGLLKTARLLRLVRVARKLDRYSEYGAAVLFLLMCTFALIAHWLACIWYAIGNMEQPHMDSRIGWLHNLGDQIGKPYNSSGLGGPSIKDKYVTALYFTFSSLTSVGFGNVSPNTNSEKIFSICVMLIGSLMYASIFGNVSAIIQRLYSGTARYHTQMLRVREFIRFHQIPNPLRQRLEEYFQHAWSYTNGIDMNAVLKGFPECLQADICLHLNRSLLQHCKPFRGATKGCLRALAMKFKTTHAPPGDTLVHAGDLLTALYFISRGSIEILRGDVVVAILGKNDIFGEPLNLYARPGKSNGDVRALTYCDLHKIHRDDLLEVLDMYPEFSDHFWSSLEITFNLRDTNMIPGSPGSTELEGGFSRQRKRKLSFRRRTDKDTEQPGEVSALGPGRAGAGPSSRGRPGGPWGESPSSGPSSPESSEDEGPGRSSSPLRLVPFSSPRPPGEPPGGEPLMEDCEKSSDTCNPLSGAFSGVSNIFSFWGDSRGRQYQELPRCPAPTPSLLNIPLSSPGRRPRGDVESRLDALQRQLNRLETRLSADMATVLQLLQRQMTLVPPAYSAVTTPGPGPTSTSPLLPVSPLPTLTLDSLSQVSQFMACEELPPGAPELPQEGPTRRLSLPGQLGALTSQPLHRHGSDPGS

Row | Structure (SMILES) | hERG current change (%, negative = inhibition) at 1uM
1 | NC(=O)c1cc([N+](=O)[O-])ccc1NCCN1C(=O)c2ccccc2C1=O | 14.5%
2 | Cc1ccc(SCc2cc(=O)[nH]c(N3CCCCC3)n2)cc1 | -2.22%
3 | CCn1cc(S(=O)(=O)NCc2ccc3c(c2)OCO3)cn1 | 11.1%
4 | Cc1[nH]c2ccc(C(=O)NCc3ccccn3)cc2c1C | 17.2%
5 | COCc1c(C(=O)N/N=C/c2ccco2)nnn1-c1nonc1N | 15.2%
6 | O=C(CCc1nc(-c2ccccc2F)no1)N1CCC2(CC1)OCCO2 | 6.8%
7 | CCC(C)NC(=O)CCSCCC(=O)NC(C)CC (centres unmarked) | 12.3%
8 | CC1CCN(c2ccc(C(=O)O)cc2N)CC1 | 10.8%
9 | CN(C)C(=O)Cn1c(=O)n(S(=O)(=O)c2ccccc2)c2ccccc21 | 14.3%
10 | COc1ccccc1NC(=O)c1coc(=O)c(Br)c1 | 7.33%
11 | CCN(CC)S(=O)(=O)c1cc(OC)c(Cl)cc1OC | 4.9%
12 | CC1(C)CC(NC(=O)c2cccc3ccccc23)CC(C)(C)N1 | 12.1%
13 | CC1CCN(C(=O)CCNS(=O)(=O)c2ccc3c(c2)oc(=O)n3C)CC1 | 19.9%
14 | Nc1cc(=O)[nH]c(SCC(=O)Nc2ncc(C(F)(F)F)cc2Cl)n1 | 14.2%
15 | CCNC(=O)/C(=C\c1ccccc1)NC(=O)/C=C/c1ccccc1 | 7.3%
16 | CC(C)(C)NS(=O)(=O)c1cc(C(=O)O)ccc1Cl | 5.17%
17 | Cc1ccc(-c2csc(Cc3nc(-c4cc5ccccc5oc4=O)cs3)n2)cc1 | 5.29%
18 | CCOC(=O)CSc1nnc2c3ccccc3n(CC)c2n1 | 6.8%
19 | CS(=O)(=O)c1ccc(Cl)c(NC(=O)C2CCCN(C(=O)c3ccc(Cl)cc3)C2)c1 (centres unmarked) | 10.1%
20 | CC(C)C[C@H](NC(=O)NCCc1ccc(Cl)cc1)C(=O)O | 5.67%
21 | CCOC(=O)C1(Cc2ccccc2C)CCCN(C(=O)c2ccc(OC)o2)C1 (centres unmarked) | 1.78%
22 | O=C(N[C@@H](CO)C(=O)NCc1ccccc1)c1ccc(C(F)(F)F)cc1 | 13.9%
23 | O=C(Nc1ccn([C@H]2CC[C@@H](CO)O2)c(=O)n1)c1ccccc1 | 5.34%

Row | Structure (SMILES) | hERG current change (%, negative = inhibition) at 1uM
24 | C=CCN(c1ccc(C(N)=O)cc1)S(C)(=O)=O | 14.2%
25 | O=C(Nc1cccc2ncccc12)c1ccc(OCc2ccccc2)cc1 | 2.14%
26 | O=C1CC(c2cccc(Cl)c2)CC(O)=C1C=NC1CCCC1 (centres unmarked) | -11%
27 | CC(C)CN(C(=O)COC(=O)c1ccc2ccccc2n1)C1CCS(=O)(=O)C1 (centres unmarked) | 11.3%
28 | Cc1cc(NC(=O)C(C)N2C(=O)c3ccccc3S2(=O)=O)no1 (centres unmarked) | 9.19%
29 | CC(=O)N1N=C(c2ccco2)CC1c1ccc(Br)cc1 (centres unmarked) | 6.07%
30 | CN(C(=O)CNC(=O)c1ccc(Br)o1)C1CCCCC1 | 18.9%
31 | CCN(CC)C(=O)CSc1nnc(-c2cnccn2)n1-c1ccccc1 | 6.53%
32 | CN(C)c1ccc(C(=O)Nc2ccc(S(=O)(=O)Nc3nccs3)cc2)cc1 | 18.9%
33 | Cc1ccc(/C=C/S(=O)(=O)NCC(=O)OCC(=O)Nc2ccc(C(=O)N(C)C)cc2)cc1 | 12.7%
34 | COc1cccc(C(=O)Nn2cnnc2)c1OC | 12.9%
35 | CCS(=O)(=O)N1CCN(C(=O)c2cccc3ccccc23)CC1 | 11.2%
36 | CCCCCCC(c1c(C)n(C)n(-c2ccccc2)c1=O)c1c(C)n(C)n(-c2ccccc2)c1=O | 1.2%
37 | Cc1cnc(C(=O)OCC(=O)N2CCN(C(=O)c3ccco3)CC2)cn1 | -5.27%
38 | Cc1cc(C)cc(N2C(=O)CC(Sc3nnnn3-c3ccccc3)C2=O)c1 (centres unmarked) | 5.47%
39 | O=C(Nc1ccncc1)C1CC1c1ccccc1 (centres unmarked) | 9.19%
40 | CC(C)COc1ccc(C(=O)Nc2ccc(SC(F)F)cc2)cc1 | 9.66%
41 | O=C(Nc1ccc(F)c(Cl)c1)C1CCCN(C2=NS(=O)(=O)c3ccccc32)C1 (centres unmarked) | -10.4%
42 | Cc1cc(C)c2oc(-c3ccc(C)c(NC(=S)NC(=O)c4cccs4)c3)nc2c1 | 8.53%
43 | Clc1ccc(OCc2nn3c(-c4ccco4)nnc3s2)cc1 | -8.42%
44 | O=C(CN(C(=O)CCNC(=O)c1ccco1)c1ccccc1)NC1CCCC1 | 12%
45 | N#CC1(NC(=O)CSc2nncn2-c2ccccc2F)CCCC1 | 6.77%
46 | Cc1cc(C)nc(NC(=O)c2cccc([N+](=O)[O-])c2)c1 | 5.03%

Row | Structure (SMILES) | hERG current change (%, negative = inhibition) at 1uM
47 | Cc1nc2ccccc2nc(C)c1=NOCC(=O)N(c1ccccc1)C(C)C | 1.71%
48 | CC1CC(C)CN(CCCNC(=O)CCC(=O)N2CC(C)Oc3ccccc32)C1 (centres unmarked) | -5.09%
49 | CN1CCN(CCC(C#N)(c2ccccc2)c2ccccc2)CC1.Cl | -35.1%
50 | Cc1cc(NC(=O)c2cc(C)on2)no1 | -0.312%
51 | O=[N+]([O-])c1cccc(CN2C[C@@]34C=C[C@@H](C[C@@H]3S2(=O)=O)O4)c1 | 1.88%
52 | COc1ccc(-c2cc([C@H]3[C@H]4C=CC[C@@H](C)[C@@H]4C(=O)N3Cc3ccccc3)ccc2F)cc1OC | 5.44%
53 | CC(C)C[C@@H](N)c1nnc(SCC(=O)c2ccc(Cl)cc2)o1.Cl | -8.91%
54 | O=C(CCNC(=O)c1ccc(Br)cc1)NCCCN1CCOCC1 | 15.8%
55 | Cc1ccc([C@@H]2[C@@H]3C(=O)N(c4ccccc4)C(=O)[C@@H]3[C@]3(Cc4ccccc4)C(=O)N(CC4CC4)CC(=O)N23)o1 | 6.29%
56 | CCOC(=O)N1CCN(C(=O)c2ccc(NS(=O)(=O)c3ccc(F)cc3)cc2)CC1 | 5.07%
57 | Cn1c(=O)c2cc(NCc3ccccc3)nnc2n(C)c1=O | 13.3%
58 | COc1ccc(C(=O)NN/C(C)=C/C(=O)c2ccccc2)cc1 | 13.3%
59 | COc1cc2c(cc1OC)C1Cc3ccc(OC)c(OC)c3CN1CC2.Cl (centres unmarked) | 10.4%
60 | Cc1ccsc1CN(C)CC(=O)Nc1ccc([N+](=O)[O-])cc1Cl | 16.5%
61 | CC(C)n1nc(CC(=O)O)c2ccccc2c1=O | 8.54%
62 | CCOC(=O)CSc1nc(C(C)(C)C)nc2ccccc12 | 2.26%
63 | O=S(=O)(CCN1CCN(c2ccccn2)CC1)c1ccc(F)cc1 | 2.13%
64 | CCC1(C)NC(=O)N(CC(=O)Nc2sc3c(c2C(=O)OC)CCCCC3)C1=O (centres unmarked) | 7.27%
65 | Cc1ccc(C(=O)OCC(=O)NCc2ccco2)cc1S(=O)(=O)N1CCOCC1 | 9.87%
66 | CCC1(C)Cc2ccccc2/C(=C/C(=O)N2CCCCC2)N1.Cl (centres unmarked) | 8.56%
67 | Cn1nc(C(F)(F)F)c(C(=O)Nc2ccc(F)cc2F)c1Sc1ccc(C(F)(F)F)cc1 | -8.56%
68 | Cc1ncsc1CCOC(=O)c1ccc(Cl)cc1 | 2.92%
69 | Cc1ccc(C)c(S(=O)(=O)Nc2cc3c4c(c2)CCN4C(=O)CC3)c1 | 1.74%

Row | Structure (SMILES) | hERG current change (%, negative = inhibition) at 1uM
70 | CCCCCC(=O)NNC(=S)NC(C)=O | 13.3%
71 | CCOC(=O)c1c(NC(=O)C(Sc2ccccc2)c2ccccc2)sc(C(N)=O)c1C (centres unmarked) | 5.28%
72 | CCCc1ccc(OCc2nc(-c3ccc(NC(=O)c4ccco4)cc3)no2)cc1 | 4.4%
73 | COc1ccc(CN2C(=NC(=O)c3ccccc3)SC3CS(=O)(=O)CC32)cc1OC (centres unmarked) | 4.25%
74 | CCCCOc1ccc(CNn2c(C)nc3ccccc3c2=O)cc1 | 15.5%
75 | C=CCc1c(C)nc(C)nc1N/N=C/c1ccc([N+](=O)[O-])cc1.Cl | -29.9%
76 | CCOc1ccc(NC(=O)CN(C)C(=O)c2ccc3[nH]c4c(c3c2)CC(C)CC4)cc1OCC (centres unmarked) | 12%
77 | CS(=O)(=O)N1CCN=C1SCc1cccc(F)c1 | 11.9%
78 | O=C(CSc1nc2ccc([N+](=O)[O-])cc2[nH]1)NC1CCCCC1 | 6.16%
79 | CCOC(=O)C1=C(C)N(CCCC(=O)O)C(=O)NC1c1ccccc1Cl (centres unmarked) | 4.34%
80 | CCS(=O)(=O)N1Cc2ccccc2CC1C(=O)N(C)CC(=O)Nc1cccc(F)c1 (centres unmarked) | 6.1%
81 | Br.CCn1c(O)c(N=NC2=NC(=O)CS2)c2ccccc21 | -0.763%
82 | Cc1sc(NC(=S)NC(=O)c2ccccc2)c(C#N)c1C | 5.2%
83 | CC(=O)c1c([O-])n(-c2cccc(Cl)c2)c(=O)[nH]c1=O.C[NH+](C)C | 13%
84 | CCCCS(=O)(=O)N1CCN(S(=O)(=O)c2ccc(Cl)s2)CC1 | 2.15%
85 | COc1ccccc1-c1noc(CCC(=O)Nc2cc(C(F)(F)F)ccc2Cl)n1 | 5.53%
86 | O=C(CCN1C(=O)/C(=C\C=C\c2ccccc2)SC1=S)Nc1ccc(C(=O)O)cc1 | 11%
87 | CC(C)CNC(=O)/C=C/c1cccs1 | -2.5%
88 | CCOC(=O)C1CSC(CC(=O)Nc2ccc(Cl)cc2)C(=O)N1 (centres unmarked) | 4.16%
89 | N#CC1=C(N)Oc2cc(N)ccc2C1c1ccsc1 (centres unmarked) | 8.36%
